Laboratory results as given in the supplement of paper PMC3334620.
Whole data set: some 33,000 sequences, median “E-score (-0.5 to 0.5)” near -0.035, cut for the highest 2% near 0.35. The list shows a part of the results.

Biological target: T1, Pdr3 (UniProt P33200)
T1 sequence: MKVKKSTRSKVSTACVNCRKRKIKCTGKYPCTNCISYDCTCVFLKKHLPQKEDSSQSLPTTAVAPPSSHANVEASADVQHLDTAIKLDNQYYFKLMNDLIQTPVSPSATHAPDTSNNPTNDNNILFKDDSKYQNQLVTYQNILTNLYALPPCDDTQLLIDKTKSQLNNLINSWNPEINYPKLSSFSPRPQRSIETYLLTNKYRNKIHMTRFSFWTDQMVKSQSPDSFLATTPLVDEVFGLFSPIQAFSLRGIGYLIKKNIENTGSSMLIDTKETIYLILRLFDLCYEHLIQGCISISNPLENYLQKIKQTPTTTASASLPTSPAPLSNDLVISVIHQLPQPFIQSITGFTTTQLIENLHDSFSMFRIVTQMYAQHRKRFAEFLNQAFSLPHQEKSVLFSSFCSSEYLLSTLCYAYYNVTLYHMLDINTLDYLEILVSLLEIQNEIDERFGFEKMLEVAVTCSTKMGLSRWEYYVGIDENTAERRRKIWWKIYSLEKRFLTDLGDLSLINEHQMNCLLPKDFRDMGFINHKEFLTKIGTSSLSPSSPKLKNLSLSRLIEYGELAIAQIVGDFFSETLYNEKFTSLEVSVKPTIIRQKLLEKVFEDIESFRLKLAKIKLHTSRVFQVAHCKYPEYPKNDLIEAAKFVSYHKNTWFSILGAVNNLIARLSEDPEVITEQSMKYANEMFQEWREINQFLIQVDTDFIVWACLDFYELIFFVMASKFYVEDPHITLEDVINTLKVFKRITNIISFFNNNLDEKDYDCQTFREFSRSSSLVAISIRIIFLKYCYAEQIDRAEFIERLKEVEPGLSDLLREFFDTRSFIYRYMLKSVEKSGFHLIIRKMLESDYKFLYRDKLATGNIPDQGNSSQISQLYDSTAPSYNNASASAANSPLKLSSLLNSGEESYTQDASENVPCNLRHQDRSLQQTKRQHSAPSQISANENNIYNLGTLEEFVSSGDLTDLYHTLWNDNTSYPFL
Assay: PBM E-score (8-mer binding enrichment) (E-score (-0.5 to 0.5)); higher = stronger / more preferred TF binding; most listed sequences are background and not binding sites
Details: protein concentration: 200 nM; construct: GST-full length
Procedure, shortened: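 Universal all-10-mer Agilent arrays, double-stranded by primer extension on fresh or once-stripped slides, were probed with about 100-200 nM GST-tagged yeast transcription factors made by PURExpress. Fluorescent anti-GST detected bound protein, and masliner normalised the scans. E-scores from the Universal PBM Analysis Suite were given to each ungapped eight-base word pooled with its reverse complement.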

In order of rising “PBM E-score” value:
1. CTCTAGCA  -0.342
2. ACGAGACT  -0.309
3. AGGAAGGG  -0.296
4. GTCACGTA  -0.263
5. ATACGTAA  -0.23
6. AATCCTAA  -0.208
7. ATTCTTAG  -0.206
8. ACTGTAGC  -0.197
9. CAGTGAGC  -0.191
10. CTAGCAAA  -0.187
11. CAAATGGG  -0.173
12. TGCGACAA  -0.166
13. AAGCCACT  -0.163
14. CTCTCTAC  -0.161
15. CCAACCAG  -0.158
16. GCTACTAA  -0.153
17. TAGACCCA  -0.15
18. AGGGGTTG  -0.141
19. CGCCCCCA  -0.129
20. GCTTTTCA  -0.124
21. AGGTTATG  -0.117
22. AGGGGTAG  -0.104
23. ATGGTACA  -0.101
24. AGGCACTC  -0.0926
25. CGCAGGCA  -0.0843
26. CCCCCGTC  -0.0797
27. CACCCACA  -0.0782
28. AATTCTCG  -0.0765
29. ATTAGGGG  -0.0731
30. AATGTTGT  -0.0708
31. CCGCCAGG  -0.0705
32. GATTAACC  -0.0685
33. CGGTCGCA  -0.068
34. ACACCCTG  -0.0647
35. AAGGAGAT  -0.0495
36. AGACAGTA  -0.0481
37. AGGTACAC  -0.0387
38. GGAGCCAA  -0.0352
39. GGGCACCA  -0.0344
40. ACAAACTA  -0.0294
41. ACCCCTCC  -0.0281
42. CGTCACGA  -0.0229
43. GGAGCCAC  -0.0215
44. ATAGCATA  -0.0191
45. GGCATCTA  -0.0141
46. AATGCAAA  -0.0106
47. ACCCTGTC  -0.0029
48. AGAACGCC  -0.00261
49. GAAGAAGC  -0.00109
50. GGACGTCA  0.00181
51. CGGCTACA  0.00776
52. TCCTCCCA  0.0109
53. ACTCAACT  0.0159
54. GTTCCACA  0.0178
55. GATTTTCA  0.0207
56. GCTATCAA  0.0211
57. AATATCAT  0.0231
58. AATAGATA  0.0256
59. GGCATGAA  0.0257
60. TCCACAAA  0.0317
61. GAAAGCTA  0.0324
62. AGTAAGTA  0.0332
63. AACGTCTG  0.0352
64. ACTATTAT  0.0352
65. ATGGGTGA  0.0373
66. CCGACACG  0.0439
67. ATGGTCTC  0.0604
68. AATCTTGG  0.0761
69. CGGTCCCA  0.0844
70. CTCTCCCC  0.106
71. ACTGGTTC  0.107
72. ATCGAGCA  0.108
73. AAAAAAAA  0.147
74. GATTATCC  0.181
75. CACGCCGA  0.181
76. AATGTAAT  0.187
77. CTCGCGAG  0.192
78. GCCGGGGA  0.2
79. ACCCGAAC  0.25
80. CCGCGTCC  0.251
81. CCGCTGCG  0.256
82. CGGCCGTA  0.31
83. CCACGGGA  0.325
84. CCGGCGAA  0.341
85. AATCCGGG  0.354
86. AACGCGGA  0.358
